We go through 31 molecules from publication PMC9911399, “Two distinct binding modes provide the RNA-binding protein RbFox with extraordinary sequence specificity”.

B1: UACCAGA (DNA:RNA)
RNA: GGGAGACCGGAAUUCAGAUUGUCCUACCAGAUUAAAUCCCGUCGUAGCCACCA
DNA 1: CAATCTGAATTCCGGTCTCCC
DNA 2: TGGTGGCTACGACGGGATT
B2: CUGGUUA (DNA:RNA)
RNA: B1 RNA with U25C, A26U, C27G, C28G, A29U, G30U
DNA 1: CAATCTGAATTCCGGTCTCCC
DNA 2: TGGTGGCTACGACGGGATT
B3: CGAUGAC (DNA:RNA)
RNA: GGGAGACCGGAAUUCAGAUUGUCCCGAUGACUUAAAUCCCGUCGUAGCCACCA
DNA 1: CAATCTGAATTCCGGTCTCCC
DNA 2: TGGTGGCTACGACGGGATT
B4: CCGCUCG (DNA:RNA)
RNA: B3 RNA with G26C, A27G, U28C, G29U, A30C, C31G
DNA 1: CAATCTGAATTCCGGTCTCCC
DNA 2: TGGTGGCTACGACGGGATT
B5: UUCCGUU (DNA:RNA)
RNA: B1 RNA with A26U, A29G, G30U, A31U
DNA 1: CAATCTGAATTCCGGTCTCCC
DNA 2: TGGTGGCTACGACGGGATT
B6: GGUAAUG (DNA:RNA)
RNA: B3 RNA with C25G, A27U, U28A, G29A, A30U, C31G
DNA 1: CAATCTGAATTCCGGTCTCCC
DNA 2: TGGTGGCTACGACGGGATT
B7: GGCACGG (DNA:RNA)
RNA: B1 RNA with U25G, A26G, C28A, A29C, A31G
DNA 1: CAATCTGAATTCCGGTCTCCC
DNA 2: TGGTGGCTACGACGGGATT
B8: CCCCAAU (DNA:RNA)
RNA: B1 RNA with U25C, A26C, G30A, A31U
DNA 1: CAATCTGAATTCCGGTCTCCC
DNA 2: TGGTGGCTACGACGGGATT
B9: UUCCCCU (DNA:RNA)
RNA: B1 RNA with A26U, A29C, G30C, A31U
DNA 1: CAATCTGAATTCCGGTCTCCC
DNA 2: TGGTGGCTACGACGGGATT
B10: AAACAUU (DNA:RNA)
RNA: B1 RNA with U25A, C27A, G30U, A31U
DNA 1: CAATCTGAATTCCGGTCTCCC
DNA 2: TGGTGGCTACGACGGGATT
B11: GGUGGGG (DNA:RNA)
RNA: B3 RNA with C25G, A27U, U28G, A30G, C31G
DNA 1: CAATCTGAATTCCGGTCTCCC
DNA 2: TGGTGGCTACGACGGGATT
B12: CGUAAAC (DNA:RNA)
RNA: B3 RNA with A27U, U28A, G29A
DNA 1: CAATCTGAATTCCGGTCTCCC
DNA 2: TGGTGGCTACGACGGGATT
B13: CCUGUUC (DNA:RNA)
RNA: B3 RNA with G26C, A27U, U28G, G29U, A30U
DNA 1: CAATCTGAATTCCGGTCTCCC
DNA 2: TGGTGGCTACGACGGGATT
B14: CUUCUGU (DNA:RNA)
RNA: B1 RNA with U25C, A26U, C27U, A29U, A31U
DNA 1: CAATCTGAATTCCGGTCTCCC
DNA 2: TGGTGGCTACGACGGGATT
B15: GAAUGGC (DNA:RNA)
RNA: B3 RNA with C25G, G26A, A30G
DNA 1: CAATCTGAATTCCGGTCTCCC
DNA 2: TGGTGGCTACGACGGGATT
B16: GGGGCAA (DNA:RNA)
RNA: B3 RNA with C25G, A27G, U28G, G29C, C31A
DNA 1: CAATCTGAATTCCGGTCTCCC
DNA 2: TGGTGGCTACGACGGGATT
B17: GUCCCGU (DNA:RNA)
RNA: B1 RNA with U25G, A26U, A29C, A31U
DNA 1: CAATCTGAATTCCGGTCTCCC
DNA 2: TGGTGGCTACGACGGGATT
B18: UCACCAU (DNA:RNA)
RNA: B3 RNA with C25U, G26C, U28C, G29C, C31U
DNA 1: CAATCTGAATTCCGGTCTCCC
DNA 2: TGGTGGCTACGACGGGATT
B19: AUUUGCC (DNA:RNA)
RNA: B3 RNA with C25A, G26U, A27U, A30C
DNA 1: CAATCTGAATTCCGGTCTCCC
DNA 2: TGGTGGCTACGACGGGATT
B20: CCUUAGA (DNA:RNA)
RNA: B1 RNA with U25C, A26C, C27U, C28U
DNA 1: CAATCTGAATTCCGGTCTCCC
DNA 2: TGGTGGCTACGACGGGATT
B21: GCAGGGU (DNA:RNA)
RNA: B3 RNA with C25G, G26C, U28G, A30G, C31U
DNA 1: CAATCTGAATTCCGGTCTCCC
DNA 2: TGGTGGCTACGACGGGATT
B22: CCCAUAG (DNA:RNA)
RNA: B3 RNA with G26C, A27C, U28A, G29U, C31G
DNA 1: CAATCTGAATTCCGGTCTCCC
DNA 2: TGGTGGCTACGACGGGATT
B23: GCUCCGC (DNA:RNA)
RNA: B1 RNA with U25G, A26C, C27U, A29C, A31C
DNA 1: CAATCTGAATTCCGGTCTCCC
DNA 2: TGGTGGCTACGACGGGATT
B24: UAAAAUU (DNA:RNA)
RNA: B1 RNA with C27A, C28A, G30U, A31U
DNA 1: CAATCTGAATTCCGGTCTCCC
DNA 2: TGGTGGCTACGACGGGATT
B25: UGGUCAU (DNA:RNA)
RNA: B3 RNA with C25U, A27G, G29C, C31U
DNA 1: CAATCTGAATTCCGGTCTCCC
DNA 2: TGGTGGCTACGACGGGATT
B26: UAUUGUG (DNA:RNA)
RNA: B3 RNA with C25U, G26A, A27U, A30U, C31G
DNA 1: CAATCTGAATTCCGGTCTCCC
DNA 2: TGGTGGCTACGACGGGATT
B27: CCGUACA (DNA:RNA)
RNA: B3 RNA with G26C, A27G, G29A, A30C, C31A
DNA 1: CAATCTGAATTCCGGTCTCCC
DNA 2: TGGTGGCTACGACGGGATT
B28: AGUUGAU (DNA:RNA)
RNA: B3 RNA with C25A, A27U, C31U
DNA 1: CAATCTGAATTCCGGTCTCCC
DNA 2: TGGTGGCTACGACGGGATT
B29: UGGGGGU (DNA:RNA)
RNA: B3 RNA with C25U, A27G, U28G, A30G, C31U
DNA 1: CAATCTGAATTCCGGTCTCCC
DNA 2: TGGTGGCTACGACGGGATT
B30: UUGUGAG (DNA:RNA)
RNA: B3 RNA with C25U, G26U, A27G, C31G
DNA 1: CAATCTGAATTCCGGTCTCCC
DNA 2: TGGTGGCTACGACGGGATT
B31: GAGCCCA (DNA:RNA)
RNA: B1 RNA with U25G, C27G, A29C, G30C
DNA 1: CAATCTGAATTCCGGTCTCCC
DNA 2: TGGTGGCTACGACGGGATT

Positions count from the first letter of the chain named. The list shows a part of the results.

For the assay, the target named is T1, RBFOX1 RRM (Homo sapiens, UniProt Q9NWB1 109-208).
T1 sequence: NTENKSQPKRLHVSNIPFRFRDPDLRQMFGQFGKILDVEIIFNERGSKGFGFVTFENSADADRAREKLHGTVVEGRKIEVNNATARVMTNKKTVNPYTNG
The assay can be described thus: EMSA; HiTS-Eq, 1 nM pool, 10 min; buffer printed only for the single-RNA assays: 10 mM Tris pH 7.5, 150 mM NaCl, 3.4 mM EDTA, 0.001% NP-40, 30 C. To be noted: tags: His6 N-terminal (pET28a); label: 5' 32P. In outline: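 Purified wild-type or mutant RbFox RRM at increasing concentrations was equilibrated with 1 nM of 5′-radiolabelled RNA carrying 7 randomized nucleotides for 10 min in 50 µL. Unbound RNA was separated by 8% native PAGE and sequenced. Relative association constants came from read-count changes of each RNA species compared with the control reaction, normalised to the cognate motif.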
On the technique in general: In EMSA bound probe runs differently from free probe, usually more slowly.
In the case of B1, the binding signal is 0.0115 KA relative to UGCAUGU.

For B2, the binding signal is 0.0161 KA relative to UGCAUGU.

For B3, the binding signal is 0.00699 KA relative to UGCAUGU.

Consider B4, for which the binding signal was 0.0183 KA relative to UGCAUGU.

B5: the binding signal was 0.00827 KA relative to UGCAUGU.

On to B6, for which the binding signal was 0.0152 KA relative to UGCAUGU.

Turning to B7, the binding signal was 0.0171 KA relative to UGCAUGU.

On to B8, for which the binding signal was 0.00262 KA relative to UGCAUGU.

Consider B9, for which the binding signal is 0.0043 KA relative to UGCAUGU.

With B10, the binding signal is 0.00283 KA relative to UGCAUGU.

Consider B11, for which the binding signal was 0.0146 KA relative to UGCAUGU.

On to B12, for which the binding signal was 0.00197 KA relative to UGCAUGU.

As for B13, the binding signal is 0.0105 KA relative to UGCAUGU.

B14: the binding signal is 0.0178 KA relative to UGCAUGU.

Regarding B15, the binding signal was 0.0189 KA relative to UGCAUGU.

For the molecule B16, the binding signal is 0.032 KA relative to UGCAUGU.

Turning to B17, the binding signal is 0.00957 KA relative to UGCAUGU.

As to B18, the binding signal was 0.000425 KA relative to UGCAUGU.

As to B19, the binding signal is 0.00754 KA relative to UGCAUGU.

As to B20, the binding signal is 0.00753 KA relative to UGCAUGU.

With B21, the binding signal is 0.01 KA relative to UGCAUGU.

With B22, the binding signal is 0.000272 KA relative to UGCAUGU.

On to B23, for which the binding signal is 0.0135 KA relative to UGCAUGU.

B24: the binding signal was 0.00426 KA relative to UGCAUGU.

With B25, the binding signal is 0.0144 KA relative to UGCAUGU.

Take B26: the binding signal is 0.0249 KA relative to UGCAUGU.

As for B27, the binding signal was 0.0046 KA relative to UGCAUGU.

Regarding B28, the binding signal is 0.0101 KA relative to UGCAUGU.

Regarding B29, the binding signal was 0.0229 KA relative to UGCAUGU.

In the case of B30, the binding signal is 0.0152 KA relative to UGCAUGU.

With B31, the binding signal was 0.00799 KA relative to UGCAUGU.
